Reference: the supplement of paper PMC11417369
The other results are listed elsewhere or left out.

These sequences were tested on PfHDP1 homeodomain (GST-tagged) (assay: gcPBM binding intensity (ln(normalized median fluorescence intensity)); higher = stronger DNA binding).
In short: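 The binding buffer was 1× PBS containing 1% milk, 0.2 mg/ml BSA, 0.5% salmon testes DNA and 0.03% Triton X-100. In it, GST-tagged P. falciparum DNA-binding domains expressed in E. coli were applied for 1 h to an Agilent 4 × 180k array of primer-extended double-stranded 36-bp intergenic genomic probes plus negative controls. Binding intensity, read with Alexa488 anti-GST antibody and a 488 nm scan, is the highest Masliner-normalised natural-log median intensity across replicate spots of either probe orientation.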

Sequence	gcPBM binding intensity (ln)
AAGGATGATACAACTTGTACATATTTGCTTAATATA [XGTACX_site764]	6.59
ATATAAATATATTGCACACACAATTATTATTATTAT [CACACA_site7147]	10.7
CATGTGCATATTAAATGTACATATATACATATATAC [XGTACX_site857]	10.2
ATATAGGTATTTAATACACACAAAACTTTCATTCCA [CACACA_site7627]	6.59
AACAAAATTGAAGGAACACACATACAGATATATATA [CACACA_site4264]	6.89
ATAGAAAAAATATACACACACTTATTAAATAAAAAT [CACACA_site7540]	6.73
TAATAATTAATTAATATAATATTTTTTCATAATTAT [XGTACX_negctrl_site602]	6.12
GTTTTTAAGAAAAACACACACTCCTGTTATTTTATA [CACACA_site3696]	6.11
TTTTTTTTTTTCGGGGGTACTAATATATTATTAATA [XGTACX_site7809]	7.87
ATAAACAAAGTTAAATGTACAAAGGGGTAAAAAAAA [XGTACX_site83]	6.82
AACAAATTTTTTTTTCCTTTTTTTTTTTTACTTCAT [CACACA_negctrl_site1214]	5.71
AAATAAATAATATGTAAACACACAAAAAATAAAAAT [CACACA_site8307]	6.77
TTATTAACCAAACGCACATGCAAAATATATTATATA [TGCATGCA_site915]	8
TTTTTTTTTCGGAAAAGTACAAAACTTTTTTATAAT [XGTACX_site4670]	5.92
ACACAATTGAAATAGTGTACAAAATGTTGTTACATA [XGTACX_site8671]	6.27
TATATATCAATATGCACACACAAGAAGTAATTATAA [CACACA_site7487]	9.74
AGACTTTGTACAAACACACACATGAGCACAATATTA [CACACA_site6755]	8.68
TAAAAAGTATATAAGAGTACACATATTTATAAATAT [XGTACX_site3084]	6.76
TATTTTTATAAAAATCGTACAAGTGATCCAATTTTT [XGTACX_site4402]	6.5
TTTTTAAAACATATCACACATATATATATATATATA [CACACA_site5991]	9.46
CCGTATTCAAAAAGGAGTACACAATTATATGTTATA [XGTACX_site641]	6.42
TATAATATAATTAAAAGTACTTAAAAAAGAATGAAA [XGTACX_site1157]	6.99
TGTTTATATAATATTCTACACACCAACAACAAACAT [CACACA_site8087]	7.21
TATTTTTTTTGTTAGGTGCATTTACATTTATTTTTA	9.16
TGTATGTATTTTCAATGTACATAAAAAAAAAAAAAA [XGTACX_site4397]	6.71
